Results on 153 variants are retold here after a collection of fitness landscapes (doi:10.1016/j.celrep.2020.107928).

The full ranking holds about 81,000 sequences; the median of “one-hybrid fitness for binding parS DNA” is about -0.17, and the highest 2% start at about 0.51. This is one part of the list.

B1: Caulobacter ParB omega fusion; a variant is named by its letters at X, in order, B8GW30 (parent)
chain: MESVVVGEPGMSEGRRGLGRGLSALLGEVDAAPAQAPGEQLGGSREAPIEILQRNPDQPRRTFREEDLEDLSNSIREKGVLQPILVRPSPDTAGEYQIVAGERAWRAAQRAGLKTVPIMVRELDDLAVLEIGIIENVQRADLNVLEEALSYKVLMEKFERTQENIAQTIGKSXSHVANXMRLLXLPDEVQSYLVSGELTAXHARAIAAAADPVALAKQIIEGGLSVRETEALARKAPNLSAGKSKGGRPPRVKDTDTQALESDLSSVLGLDVSIDHRGSTGTLTITYATLEQLDDLCNRLTRGI

The variants in this assay derive from B1. The experiment in a line: one-hybrid fitness for binding parS DNA (scaled: cognate 1, non-cognate 0); higher = stronger binding. Conditions: with parS DNA site. The procedure, abridged: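 Pre- and post-selection plasmids were Illumina-sequenced, three replicate libraries were pooled, and any variant with under 10 reads was removed. The libraries were Caulobacter ParB with four specificity codons randomised, selected in E. coli USO through a HIS3 reporter whose site is 19 bp from the promoter. Cells grew 48 hours at 37°C on M9 without histidine, with 0.1 mM IPTG and 5 mM 3-AT. Fitness is the log change in variant-to-wild-type read ratio, rescaled against cognate and non-cognate.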
For NTHC, the “one-hybrid fitness for binding parS DNA” value was ≤ 0.2.
Next, FRNK: ≤ 0.2.
Next, RNHV: ≤ 0.2; MNKS: ≤ 0.2; PQHR: ≤ 0.2.
Next, NYVI: ≤ 0.2; EMKS: ≤ 0.2.
With CCVG, the “one-hybrid fitness for binding parS DNA” value was ≤ 0.2.
WKGT: the “one-hybrid fitness for binding parS DNA” value was ≤ 0.2.
Turning to YEVS, the “one-hybrid fitness for binding parS DNA” value is ≤ 0.2.
Next, APFF: ≤ 0.2.
For LAGH the value was ≤ 0.2; for QSHA, ≤ 0.2.
Consider RYMA, for which the “one-hybrid fitness for binding parS DNA” value came to 0.553.
Next, CTLN: ≤ 0.2; WWPE: ≤ 0.2.
Next, ENTI: ≤ 0.2; YEDS: ≤ 0.2; LFDS: ≤ 0.2.
In the case of YLCS, the “one-hybrid fitness for binding parS DNA” value is ≤ 0.2.
Next, HTET: ≤ 0.2.
Next, SYLC: ≤ 0.2; VYPS: ≤ 0.2; QYNI: ≤ 0.2.
Next, SYWY: ≤ 0.2.
With TGLS, the “one-hybrid fitness for binding parS DNA” value was ≤ 0.2.
Next, WNHG: ≤ 0.2; KAAM: ≤ 0.2; NTYR: ≤ 0.2.
Next, PSQL: ≤ 0.2; VKCA: ≤ 0.2.
As to TKYI, the “one-hybrid fitness for binding parS DNA” value was ≤ 0.2.
For WQDR the value was ≤ 0.2; for EMMR, ≤ 0.2; for FCQC, ≤ 0.2.
For PHCY the value was ≤ 0.2.
For SIKD the value was ≤ 0.2; for VVTQ, ≤ 0.2.
In the case of WTPH, the “one-hybrid fitness for binding parS DNA” value is ≤ 0.2.
Next, RWCN: ≤ 0.2; HHRV: ≤ 0.2; MGKC: ≤ 0.2.
For VSTL the value was ≤ 0.2; for PIDG, ≤ 0.2.
As to AYLG, the “one-hybrid fitness for binding parS DNA” value was ≤ 0.2.
For RPQD the value was ≤ 0.2.
Next, RDYR: ≤ 0.2; HGNW: ≤ 0.2; FDNC: ≤ 0.2.
For LCKY the value was ≤ 0.2.
Take CGGV: the “one-hybrid fitness for binding parS DNA” value is ≤ 0.2.
Take RSAT: the “one-hybrid fitness for binding parS DNA” value is 0.869.
Next, QCMK: ≤ 0.2.
Next, LQTS: ≤ 0.2; PIVR: ≤ 0.2.
For TTCS the value was ≤ 0.2; for ASRY, ≤ 0.2; for AMPM, ≤ 0.2.
With VARE, the “one-hybrid fitness for binding parS DNA” value is ≤ 0.2.
For SEKY the value was 0.242.
With TMKN, the “one-hybrid fitness for binding parS DNA” value was ≤ 0.2.
For SMYK the value was ≤ 0.2.
For AFTT the value was ≤ 0.2; for YARA, ≤ 0.2.
Next, HNAG: ≤ 0.2; SGKG: ≤ 0.2.
On to PACA, for which the “one-hybrid fitness for binding parS DNA” value is ≤ 0.2.
As to RWEY, the “one-hybrid fitness for binding parS DNA” value was ≤ 0.2.
Next, IENT: ≤ 0.2; WMLA: ≤ 0.2.
For SAKA the value was ≤ 0.2.
Consider QVYI, for which the “one-hybrid fitness for binding parS DNA” value is ≤ 0.2.
For QNTD the value was ≤ 0.2; for ELPE, ≤ 0.2.
For GCNC the value was ≤ 0.2.
For HDLC the value was ≤ 0.2; for IQDT, ≤ 0.2.
In the case of ATCF, the “one-hybrid fitness for binding parS DNA” value was ≤ 0.2.
For CLYL the value was ≤ 0.2; for LDMK, ≤ 0.2.
For the variant IYTT, the “one-hybrid fitness for binding parS DNA” value is ≤ 0.2.
LDTV: the “one-hybrid fitness for binding parS DNA” value is ≤ 0.2.
For EFAS the value was ≤ 0.2.
Next, ENHC: ≤ 0.2.
For GNSW the value was ≤ 0.2; for PYWI, ≤ 0.2; for ENWC, ≤ 0.2.
Turning to SENF, the “one-hybrid fitness for binding parS DNA” value is ≤ 0.2.
SNGS: the “one-hybrid fitness for binding parS DNA” value was ≤ 0.2.
For QYQS, the “one-hybrid fitness for binding parS DNA” value is ≤ 0.2.
Next, IFWT: 0.24.
For GPCT the value was ≤ 0.2.
For STCF the value was ≤ 0.2; for NDTC, ≤ 0.2; for SAAD, ≤ 0.2.
As for TMPY, the “one-hybrid fitness for binding parS DNA” value was ≤ 0.2.
Next, RSIF: ≤ 0.2; YYQS: ≤ 0.2; CSII: ≤ 0.2.
For WQGG the value was ≤ 0.2.
Next, LRKD: ≤ 0.2; HVHC: ≤ 0.2; RMAN: 0.46.
Take EPHS: the “one-hybrid fitness for binding parS DNA” value is ≤ 0.2.
Next, CAMG: ≤ 0.2.
For WKVS the value was ≤ 0.2; for EENG, ≤ 0.2; for WYLG, ≤ 0.2.
On to SQQR, for which the “one-hybrid fitness for binding parS DNA” value was ≤ 0.2.
For NLIV the value was ≤ 0.2.
For MAFG the value was ≤ 0.2.
For PYIL the value was ≤ 0.2; for FPKF, ≤ 0.2; for RSWA, 0.546.
As to GENV, the “one-hybrid fitness for binding parS DNA” value is ≤ 0.2.
For PPDR the value was ≤ 0.2; for TFNC, ≤ 0.2.
For PLAE the value was ≤ 0.2; for ILGC, ≤ 0.2.
For MQQS the value was ≤ 0.2.
For HNTV, the “one-hybrid fitness for binding parS DNA” value was ≤ 0.2.
For SDGM the value was ≤ 0.2; for PPPY, ≤ 0.2; for GMWK, ≤ 0.2.
In the case of AGQY, the “one-hybrid fitness for binding parS DNA” value is ≤ 0.2.
LTPG: the “one-hybrid fitness for binding parS DNA” value was ≤ 0.2.
For MDMG the value was ≤ 0.2; for WHCS, ≤ 0.2; for HPNT, ≤ 0.2.
As to YFEG, the “one-hybrid fitness for binding parS DNA” value is ≤ 0.2.
For FCQS the value was ≤ 0.2.
As for STPN, the “one-hybrid fitness for binding parS DNA” value is ≤ 0.2.
For IRPV the value was ≤ 0.2.
For the variant TLPP, the “one-hybrid fitness for binding parS DNA” value was ≤ 0.2.
Turning to LEID, the “one-hybrid fitness for binding parS DNA” value was ≤ 0.2.
For IDLR, the “one-hybrid fitness for binding parS DNA” value was ≤ 0.2.
For NYQC the value was ≤ 0.2.
In the case of ELDT, the “one-hybrid fitness for binding parS DNA” value was ≤ 0.2.
For AVMP the value was ≤ 0.2.
Next, LQDI: ≤ 0.2; YHPM: ≤ 0.2.
For DTML the value was ≤ 0.2; for CPYT, ≤ 0.2.
As for ETHW, the “one-hybrid fitness for binding parS DNA” value is ≤ 0.2.
Next, PQPS: ≤ 0.2.
For ATQS the value was ≤ 0.2.
As to TNCV, the “one-hybrid fitness for binding parS DNA” value was ≤ 0.2.
On to PYVQ, for which the “one-hybrid fitness for binding parS DNA” value is ≤ 0.2.
For NFGT the value was ≤ 0.2; for WTGH, ≤ 0.2.
Next, LSWL: ≤ 0.2; QHQT: ≤ 0.2; PGND: ≤ 0.2.
